Data reported in publication PMC4336329 (PLoS ONE, 2015).
Among all 310,000 compounds or so, about 14,000 (4.5%) showed an effect of 50% or more. Effects have a minus sign here. Some of the results follow.

Biological target: human ether-à-go-go-related gene (hERG) potassium channel (human, UniProt Q12809)
Experiment: primary screen, population patch clamp on CHO cells stably expressing hERG
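Note: peak tail current of the secondary pulse compared with the same well before compound.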

human ether-à-go-go-related gene (hERG) potassium channel, sequence (Q12809 whole entry, looked up): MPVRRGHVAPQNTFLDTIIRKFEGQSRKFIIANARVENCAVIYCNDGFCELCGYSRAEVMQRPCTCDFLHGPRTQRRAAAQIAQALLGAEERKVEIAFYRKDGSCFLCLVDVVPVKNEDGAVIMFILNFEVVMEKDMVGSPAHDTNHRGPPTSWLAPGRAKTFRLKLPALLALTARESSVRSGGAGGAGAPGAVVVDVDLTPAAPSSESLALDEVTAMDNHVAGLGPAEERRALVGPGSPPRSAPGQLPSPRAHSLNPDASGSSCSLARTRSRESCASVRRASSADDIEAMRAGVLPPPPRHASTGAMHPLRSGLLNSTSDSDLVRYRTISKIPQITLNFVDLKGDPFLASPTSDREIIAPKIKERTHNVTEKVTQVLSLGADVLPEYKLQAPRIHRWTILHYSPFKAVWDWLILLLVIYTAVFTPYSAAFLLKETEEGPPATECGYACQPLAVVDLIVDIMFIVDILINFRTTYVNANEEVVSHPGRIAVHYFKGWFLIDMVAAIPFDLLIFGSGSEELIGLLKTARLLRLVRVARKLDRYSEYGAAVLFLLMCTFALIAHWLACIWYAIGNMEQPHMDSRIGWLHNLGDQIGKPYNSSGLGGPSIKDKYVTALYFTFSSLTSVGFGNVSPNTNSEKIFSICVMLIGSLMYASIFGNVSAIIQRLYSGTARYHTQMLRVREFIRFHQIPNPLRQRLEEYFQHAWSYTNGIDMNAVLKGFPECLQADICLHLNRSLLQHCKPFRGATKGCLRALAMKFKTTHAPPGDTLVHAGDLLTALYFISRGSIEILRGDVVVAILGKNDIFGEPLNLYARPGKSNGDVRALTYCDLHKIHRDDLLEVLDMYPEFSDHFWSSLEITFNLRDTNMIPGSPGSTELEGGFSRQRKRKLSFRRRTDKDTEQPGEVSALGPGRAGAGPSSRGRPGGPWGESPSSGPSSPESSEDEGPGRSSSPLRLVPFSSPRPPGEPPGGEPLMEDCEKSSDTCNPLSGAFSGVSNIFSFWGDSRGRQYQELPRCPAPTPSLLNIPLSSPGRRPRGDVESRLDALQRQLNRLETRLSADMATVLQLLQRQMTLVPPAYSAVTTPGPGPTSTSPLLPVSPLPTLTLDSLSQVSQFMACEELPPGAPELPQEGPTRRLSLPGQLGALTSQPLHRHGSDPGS

Structure (SMILES)	hERG current change (%, negative = inhibition) at 10uM [%]
CCN(CC)C(=O)c1nc[nH]c1C(=O)N(CC)CC	14.7
COc1ccc(-n2c(O)c(C=NCc3ccc4c(c3)OCO4)c(=O)[nH]c2=O)cc1	1.59
NC(=O)c1ccc(NC(=O)COC(=O)C(Cc2ccccc2)NC(=O)c2ccccc2)cc1 (centres unmarked)	-53
C=CCn1nc(-c2ccccc2)c2c(C)onc2c1=O	-11.7
CCNC(=S)NNC(=O)c1ccccn1	2.8
Cc1nnc(SCC(=O)Nc2cc(C(N)=O)cc(C(N)=O)c2)n1-c1ccccc1	17.2
Cc1cccc(C)c1NC(=S)N(CCc1ccncc1)C(C)C	-1.45
CCOc1ccc(OCc2ccc(C(=O)Nc3cccc(C)n3)o2)cc1	-21.8
CN(C)CCN(Cc1ccccc1)S(=O)(=O)c1csc(C(N)=O)c1	-5.5
CCOC(=O)N/N=C/c1cccnc1	41.3
COc1ccc([N+](=O)[O-])cc1/C=N/NC(=O)c1nonc1N	16.2
CCN(CC)CCCN1C(=O)c2oc3ccccc3c(=O)c2C1c1cc(OC)ccc1OC (centres unmarked)	-13
O=c1[nH]c2ccccc2nc1C(F)(F)F	13.2
COc1ccc(CNC(=O)CCCn2nc(C)c([N+](=O)[O-])c2C)cc1	-12.2
CCOC(=O)c1c(C)n(C)c2ccc(OCC(O)CN3CCCCCC3)cc12.Cl (centres unmarked)	-18.4
Cc1ccc(NC(=O)Cn2cnc3sc(C(=O)NCc4ccco4)c(C)c3c2=O)cc1Cl	-10.9
CCOC(=O)c1c(C)[nH]c(N=Nc2ccc(C)cc2)c1C	13.8
N#CC(C#N)=C(N)CSc1cccc[n+]1[O-]	26.6
COc1ccccc1CNCC(=O)Nc1ccc(C#N)cc1.O=C(O)C(=O)O	-21.5
COc1ccc(/C=C2\CCn3c2nc2cc(C(=O)O)ccc2c3=O)cc1	9.07
CCc1noc(C)c1C(=O)N1CCCC1	7.15
COc1ccc(C(=O)C2CCCN(S(=O)(=O)c3ccccc3F)C2)c(C)c1 (centres unmarked)	9.1

Structure (SMILES)	hERG current change (%, negative = inhibition) at 10uM [%]
COCc1cc(C)nc2sc(C(=O)NN)c(-n3cccc3)c12	11.2
Cc1ccc(Oc2ccc(Cl)cc2N)cc1	15
FC(F)(F)Oc1ccc(Nc2nc3ccccc3o2)cc1	9.61
Cc1ccccc1OCC(=O)Nc1ccc(N2CCOCC2)cc1N1CCOCC1	-32
O=C(NCc1ccc2c(c1)OCO2)c1ccc(CS(=O)(=O)c2ccc(Br)cc2)o1	-4.76
C=CCN1CC(c2nc3ccccc3n2Cc2cccc3ccccc23)CC1=O (centres unmarked)	-24.2
CCCCn1c(N)c(N(CC(C)C)C(=O)C2CC(=O)N(c3ccccc3C(C)CC)C2)c(=O)[nH]c1=O (centres unmarked)	1.96
Cc1ccc(NC(=O)COc2ccc(N(C)S(=O)(=O)c3ccc(F)cc3)cc2)cc1	-0.724
Cc1cc(C)n2nc(S(=O)(=O)N(CC(C)C)CC(C)C)nc2n1	3.63
Cc1c(NC(=O)Cn2nc(C(F)(F)F)c3c2CCCC3)c(=O)n(-c2ccccc2)n1C	2.81
CN(C)C1=NC[C@H](Cc2ccccc2)N1CCC1CCCC1	-43.5
COc1ccc2oc(C(=O)OCC(=O)N(C)C3CCCCC3)c(C)c2c1	-22.9
Nc1nc(SCc2nc(-c3ccccc3)no2)[nH]c(=O)c1-c1ccccc1	-39.9
CCOC(=O)c1ccc(S(=O)(=O)N2CCN(CC(=O)NC(=O)NC3CCCCC3)CC2)cc1	-38.8
COc1ccccc1NC(=O)c1ccc(-c2nn(C)c(=O)c3ccccc23)cc1	-25.8
Cc1oc2c(C)c3oc(=O)c(CCC(=O)NCCCN4CCCC4=O)c(C)c3cc2c1C	-14.8
COC(=O)c1cc(C#N)c(NCc2ccc(Cl)cc2Cl)nc1C	-9.15
CC1(O)C(=O)C=C2C=C(C3CC3)OC=C2C1=O (centres unmarked)	16.8
CCOC(=O)c1ccc(S(=O)(=O)Nc2nc3cc(S(=O)(=O)NC4=NCCCCC4)ccc3s2)cc1	1.17
COc1ccc(CCNC(=O)C23CCC(C)(C(=O)C2=O)C3(C)C)cc1OC (centres unmarked)	11.1
Cc1ccccc1NC(=O)c1cccc(Cn2cc(Br)c([N+](=O)[O-])n2)c1	-3.63
O=C(O)C(F)(F)F.O=C1C(Cc2ccccc2)Nc2ncnc(N3CCN(c4ccccc4)CC3)c2N1Cc1ccc(Cl)cc1 (centres unmarked)	0.92
